Screen size: about 310,000 compounds; about 2,200 (0.71%) showed an effect of 50% or more. Effects have a minus sign here. The list shows a part of the results.

Chain of human ether-à-go-go-related gene (hERG) potassium channel (Q12809 whole entry, looked up): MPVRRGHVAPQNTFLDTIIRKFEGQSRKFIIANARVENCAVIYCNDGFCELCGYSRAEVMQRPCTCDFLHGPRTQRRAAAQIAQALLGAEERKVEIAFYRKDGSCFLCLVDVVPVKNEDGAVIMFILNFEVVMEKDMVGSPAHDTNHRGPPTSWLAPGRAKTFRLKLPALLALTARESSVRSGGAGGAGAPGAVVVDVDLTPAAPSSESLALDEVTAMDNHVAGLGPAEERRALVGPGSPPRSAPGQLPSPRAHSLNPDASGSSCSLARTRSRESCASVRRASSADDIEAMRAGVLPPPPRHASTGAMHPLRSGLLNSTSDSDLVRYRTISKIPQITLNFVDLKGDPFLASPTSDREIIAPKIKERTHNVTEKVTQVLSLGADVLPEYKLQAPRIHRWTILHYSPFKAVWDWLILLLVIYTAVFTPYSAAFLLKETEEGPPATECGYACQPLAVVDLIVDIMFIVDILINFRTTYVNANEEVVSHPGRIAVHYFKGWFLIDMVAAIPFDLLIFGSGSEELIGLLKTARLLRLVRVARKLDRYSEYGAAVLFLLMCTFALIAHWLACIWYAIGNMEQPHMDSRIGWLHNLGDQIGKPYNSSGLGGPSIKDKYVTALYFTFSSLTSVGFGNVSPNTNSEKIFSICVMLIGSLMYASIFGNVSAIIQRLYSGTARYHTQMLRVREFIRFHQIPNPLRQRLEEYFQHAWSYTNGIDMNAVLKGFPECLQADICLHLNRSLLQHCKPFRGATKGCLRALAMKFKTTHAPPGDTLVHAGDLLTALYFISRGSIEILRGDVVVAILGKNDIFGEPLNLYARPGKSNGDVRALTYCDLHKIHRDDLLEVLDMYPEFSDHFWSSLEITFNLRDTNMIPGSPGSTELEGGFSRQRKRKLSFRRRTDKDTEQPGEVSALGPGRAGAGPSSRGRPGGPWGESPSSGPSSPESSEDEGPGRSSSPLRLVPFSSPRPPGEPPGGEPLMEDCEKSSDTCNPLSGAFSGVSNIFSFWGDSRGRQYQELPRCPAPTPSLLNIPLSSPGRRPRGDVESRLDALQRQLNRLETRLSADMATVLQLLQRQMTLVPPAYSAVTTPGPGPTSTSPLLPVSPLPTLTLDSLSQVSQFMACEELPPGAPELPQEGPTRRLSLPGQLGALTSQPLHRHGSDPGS

This assay concerns the target human ether-à-go-go-related gene (hERG) potassium channel (human, UniProt Q12809). The experiment in a line: primary screen, population patch clamp on CHO cells stably expressing hERG.
As to `O=C(c1cc(-c2ccc(Cl)cc2Cl)on1)N1CCCCCC1`, the “hERG current change (%, negative = inhibition) at 1uM” value is given as 6.5%.
In the case of `CC1CN(CC(=O)Nc2ccc(Br)cn2)CC(C)O1` (stereo not shown), the “hERG current change (%, negative = inhibition) at 1uM” value worked out at 15.1%.
To `CCOc1ccc(CCNC(=O)CS(=O)Cc2nc(-c3ccccc3Cl)oc2C)cc1OCC` (stereo not shown) belongs 14.6%; to `CC(=O)CCc1c(C)nc2ccc(C(=O)O)cc2c1Cl`, 9.09%.
As to `COCCN(CC(=O)Nc1cccc(C)c1C)C(=O)c1cc2c(s1)CCC2`, the “hERG current change (%, negative = inhibition) at 1uM” value is 23.4%.
With `CC(/C=C/c1ccccc1)=N/O`, the “hERG current change (%, negative = inhibition) at 1uM” value is given as 10.8%.
The figure for `CC(C)c1nnc(NC(=O)CCC(=O)Nc2ccccc2)s1` is 12.1%; for `CCc1ccc(-c2csc(NC(=O)Oc3ccccc3)n2)cc1` it is 11.8%.
To `CC(C)COc1ccc(C(=O)Nc2cc(S(=O)(=O)N3CCOCC3)ccc2N2CCCC2)cc1` belongs 1.7%; to `Cc1sc2nc(CC(=O)NN)[nH]c(=O)c2c1C`, 9.92%; to `O=C(CCCc1ccccc1)NCCc1ccc(F)cc1`, 14.6%.
The figure for `S=C(Nc1ccc(Cl)cc1)NN1CCOCC1` is 5.15%.
As for `Cc1ccc(S(=O)(=O)N2CCCCC2)cc1NC(=O)Cc1c[nH]c2ccccc12`, the “hERG current change (%, negative = inhibition) at 1uM” value is recorded as -9.89%.
With `Cc1csc(NC(=O)c2cc(-c3ccncc3)nc3ccccc23)n1`, the “hERG current change (%, negative = inhibition) at 1uM” value is given as 3.83%.
In the case of `COc1ccc(NC(=O)c2cn(CCC#N)nc2-c2ccccc2)cc1`, the “hERG current change (%, negative = inhibition) at 1uM” value came to 5.29%.
Regarding `O=C(NNC(=O)c1ccccc1Cl)c1cccs1`, the “hERG current change (%, negative = inhibition) at 1uM” value is given as 10.6%.
The figure for `Cc1cc(C)n(S(=O)(=O)Cc2ccccc2)n1` is 8.62%; for `O=C(C[n+]1ccccc1)N/N=C/c1ccc(O)cc1.[Cl-]` it is 12.9%; for `CC(=O)c1ccc(NC(=O)c2ccc3c(=O)n4c(nc3c2)CCCCC4)cc1` it is 8.35%.
`O=S(=O)(c1ccccc1F)N1CCN(CCc2ccccc2)CC1`: the “hERG current change (%, negative = inhibition) at 1uM” value came to 12.2%.
Consider `COc1cc(CCC(=O)NCc2ccc(S(N)(=O)=O)cc2)cc(OC)c1OC`, for which the “hERG current change (%, negative = inhibition) at 1uM” value stood at 16.1%.
To `CC(C)(C)OC(=O)N1CCN(C(=O)c2[nH]cnc2C(=O)N[C@@H](Cc2ccccc2)C(=O)OCc2ccccc2)CC1` belongs 4.62%.
To `CCOC(=O)c1c(C)nc2sc3c(=O)n(-c4ccc(OC)cc4)cnc3c2c1-c1ccc(OC)cc1` belongs 12%; to `Cc1nc(CN2CCC(c3ccccc3)CC2)cc(=O)[nH]1`, 17.1%.
To `CCOC(=O)N1CCC(N(CCN(C)C)C(=S)Nc2ccccc2C)CC1` belongs 11.2%; to `CCOc1ccc(-n2c(SCC(N)=O)nnc2-c2ccco2)cc1`, 9.37%; to `CC(C)c1nnc(NC(=O)c2cccnc2)s1`, 13.7%.
For the molecule `O=C(CN1CCCC1)N1c2ccccc2Sc2ccccc21`, the “hERG current change (%, negative = inhibition) at 1uM” value worked out at 1.44%.
To `COc1ccc(C(=O)NC(C)c2ccncc2)cc1S(=O)(=O)N(C)Cc1ccccc1` (stereo not shown) belongs -3.57%; to `CC(C(=O)N1c2ccccc2CCc2ccccc21)n1nnc(-c2ccc(N(C)C)cc2)n1` (stereo not shown), 12.9%; to `COc1ccc(CCC(=O)Nc2nc(C)c(C(=O)N(C)C)s2)cc1`, -3.88%.
To `COc1cc(/C=N/N2CCN(C3c4ccccc4-c4ccccc43)CC2)ccc1O` belongs 9.05%; to `O=[N+]([O-])c1ccc(C[n+]2cc(-c3ccccc3)n3c2CCCCC3)cc1.[Br-]`, -8.73%; to `COC(=O)C1=C(c2ccc(S(C)(=O)=O)cc2)C[C@@H]2CC[C@H]1N2C`, 13%.
To `CC1(C)CC(C)(O)P(=O)(c2ccccc2)O1` (stereo not shown) belongs 2.8%.
Regarding `O=C(CCc1ccccc1)Nc1ccc(S(=O)(=O)Nc2nccs2)cc1`, the “hERG current change (%, negative = inhibition) at 1uM” value turned out to be 2.47%.
To `O=C(NC1CCCCC1)C1CCN(c2ncccn2)CC1` belongs 8.52%; to `NC[C@H](Cc1ccccc1)NCCCCC1CCCCC1`, 17.5%; to `CC1CCCCN1C(=O)CSc1nnc2c(n1)[nH]c1ccc(F)cc12` (stereo not shown), 18.1%.
For the molecule `CN(C)S(=O)(=O)c1ccc(Cl)c(NC(=O)CN2CCCCCC2)c1`, the “hERG current change (%, negative = inhibition) at 1uM” value was -3.33%.
With `O=S(=O)(NC1CCCC1)c1cc(F)ccc1F`, the “hERG current change (%, negative = inhibition) at 1uM” value is listed as -0.891%.
To `O=C1CCCN1c1ccc(Br)cc1` belongs 12.2%; to `CC(=O)Nc1c2c(nn1-c1ccc(F)cc1)CSC2`, 11.4%.
To `N#Cc1c2n(c3c(=O)n(Cc4ccc(Cl)cc4)cnc13)CCCCC2` belongs -1.35%; to `Br.CC1=CS(=O)(=O)CC1Sc1nc2ccccc2[nH]1` (stereo not shown), 0.45%; to `O=C(CC1SC(N2CCCCC2)=NC1=O)Nc1ccc(C(=O)O)cc1` (stereo not shown), 14.5%.
In the case of `Cc1ccc(NC2=NCCC2)cc1Cl`, the “hERG current change (%, negative = inhibition) at 1uM” value is 5.39%.
Take `CCN1CCc2c(sc(NC(=O)c3cc4ccccc4cc3OC)c2C(N)=O)C1.Cl`: the “hERG current change (%, negative = inhibition) at 1uM” value amounted to 10.2%.
To `C/C(=C/C=C/[C@@H](C)C(=O)O)[C@H]1CN[C@H](C(=O)O)[C@H]1CC(=O)O` belongs 2.33%; to `Cc1cc(C)nc(/N=C(\NC(=O)C(C)(C)C)Nc2ccccc2)n1`, 9.72%; to `CCN1CCN(C(=O)CN(CC)S(=O)(=O)c2ccc(Cl)cc2)CC1`, -3.6%.
The figure for `COc1cc(O)c(C(CC(=O)N2CCOCC2)c2ccc3c(c2)OCO3)c(OC)c1` (stereo not shown) is 12.9%; for `O=C(NN=C1CCCCCC1)c1cn(-c2ccccc2)nc1-c1ccccc1` it is 5.2%.
With `CC(=O)[C@H]1[C@H](CCc2ccccc2)NC(=O)N(Cc2ccccc2)[C@@H]1C`, the “hERG current change (%, negative = inhibition) at 1uM” value is 2.97%.
The figure for `CCCCN(CC)C(=O)c1cc2cc3ccc(Cl)cc3nc2o1` is 9.84%; for `N#C/C(=C\c1ccccc1)c1n[nH]c(Cn2cncn2)n1` it is 7.16%; for `Cc1nn(CC(O)Cn2cnc3c2c(=O)n(C)c(=O)n3C)c(C)c1Br` (stereo not shown) it is 2.13%.
Take `CC(=O)n1c2c(c3ccccc31)OC(N)=C(C#N)C2c1ccc(C(C)C)cc1` (stereo not shown): the “hERG current change (%, negative = inhibition) at 1uM” value is reported as 6.84%.

These data come from paper PMC4336329 (PLoS ONE, 2015).
